Assay results as given in the supplement of paper PMC3334620.
Whole data set: some 33,000 sequences, median “E-score (-0.5 to 0.5)” near -0.043, cut for the highest 2% near 0.37. This is one part of the list.

biological target: T1, Upc2 (UniProt Q12151); assay: PBM E-score (8-mer binding enrichment) (E-score (-0.5 to 0.5)); higher = stronger / more preferred TF binding; most listed sequences are background and not binding sites; settings: protein concentration: 200 nM; construct: GST-full length
T1 sequence: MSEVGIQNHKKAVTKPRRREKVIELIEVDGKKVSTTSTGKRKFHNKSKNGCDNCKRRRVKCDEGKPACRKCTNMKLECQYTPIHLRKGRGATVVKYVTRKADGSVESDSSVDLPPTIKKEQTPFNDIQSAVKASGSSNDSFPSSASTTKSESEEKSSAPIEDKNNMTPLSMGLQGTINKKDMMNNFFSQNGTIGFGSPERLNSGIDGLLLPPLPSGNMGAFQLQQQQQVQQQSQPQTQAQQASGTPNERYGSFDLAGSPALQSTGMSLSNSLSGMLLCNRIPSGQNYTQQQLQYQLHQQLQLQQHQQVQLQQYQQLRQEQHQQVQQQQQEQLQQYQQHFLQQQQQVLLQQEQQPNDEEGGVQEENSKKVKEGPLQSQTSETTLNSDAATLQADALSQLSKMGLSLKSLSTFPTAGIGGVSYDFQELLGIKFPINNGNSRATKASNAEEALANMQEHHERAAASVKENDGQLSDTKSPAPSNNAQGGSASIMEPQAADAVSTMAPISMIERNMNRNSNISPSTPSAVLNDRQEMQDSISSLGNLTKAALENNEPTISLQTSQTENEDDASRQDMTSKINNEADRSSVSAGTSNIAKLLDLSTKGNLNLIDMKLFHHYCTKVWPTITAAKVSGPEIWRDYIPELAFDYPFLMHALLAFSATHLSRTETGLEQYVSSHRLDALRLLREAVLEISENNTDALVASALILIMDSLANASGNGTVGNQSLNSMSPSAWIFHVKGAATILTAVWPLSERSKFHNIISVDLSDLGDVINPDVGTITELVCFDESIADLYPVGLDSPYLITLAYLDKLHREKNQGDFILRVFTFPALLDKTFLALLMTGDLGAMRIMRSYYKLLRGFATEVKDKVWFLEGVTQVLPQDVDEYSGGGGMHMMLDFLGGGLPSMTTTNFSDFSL
Experimental: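 Universal 'all 10-mer' protein binding microarrays (Agilent AMADID 015681) probed with GST-tagged S. cerevisiae TFs (full-length or DBD) made by in vitro transcription/translation (PURExpress), about 100-200 nM. Bound TF was detected with fluorescent anti-GST. Each ungapped 8-mer (which stands for itself and its reverse complement) is scored by the PBM enrichment score (E-score), a modified Wilcoxon-Mann-Whitney statistic from -0.5 to +0.5, computed with the Universal PBM Analysis Suite. Scale: above 0.35 generally sequence-specific binding.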

| Sequence | PBM E-score |
| --- | --- |
| AAAAAGTG | -0.0116 |
| CCGGTCGC | 0.111 |
| GCCCAGAC | -0.199 |
| CCTGAAAA | -0.0964 |
| ATAGTGAT | 0.144 |
| CTGGTTCA | -0.124 |
| AAGCCCTT | -0.212 |
| CATACCCA | -0.0148 |
| AGGGGACG | -0.158 |
| GCCGTGGA | -0.0179 |
| CGACACTA | 0.0796 |
| AGAACAAC | -0.106 |
| CATTTATA | 0.041 |
| AGGGTTGA | 0.0209 |
| AAATCCTT | -0.0627 |
| CACCGGTC | -0.252 |
| CAGTAGGA | -0.212 |
| TACCGGCA | 0.0135 |
| ATAACAGA | -0.0135 |
| ACCGACTG | 0.118 |
| AACAAAAC | 0.0702 |
| CACACGCG | 0.0196 |

| Sequence | PBM E-score |
| --- | --- |
| CCGGACGA | -0.275 |
| CCTTCAGA | -0.107 |
| AGACCGGG | -0.166 |
| CCCGGGCA | -0.169 |
| CTCGAATC | -0.159 |
| AGCGCTAG | -0.142 |
| CTACCTCA | -0.167 |
| CATGTCCG | -0.124 |
| ACGCAAGG | 0.0892 |
| CTACATTA | -0.0241 |
| CACAAACA | -0.0461 |
| AGAACACC | -0.039 |
| CCATTAGA | -0.236 |
| ATCTAATG | -0.0249 |
| ACACAAGA | -0.176 |
| GAGATTCC | -0.119 |
| AATCTTCC | -0.0871 |
| ATGTTAGG | -0.00946 |
| AGAAGTCT | -0.217 |
| CCCGTTCC | 0.327 |
| AAACTTAA | 0.05 |
| AGTTAGGG | -0.272 |

| Sequence | PBM E-score |
| --- | --- |
| ATTACGAC | 0.348 |
| GAGTCCCA | -0.0558 |
| AGACATGG | -0.0807 |
| GTTTGTGA | 0.0939 |
| AGACGTGA | -0.0748 |
| CGTCATGC | -0.202 |
| ATCAATGG | -0.234 |
| CCGATAGG | -0.0556 |
| AACTGAGC | -0.0377 |
| AAGGTCTC | -0.107 |
| TTCGCAAA | 0.208 |
| AACCCCTG | -0.157 |
| GCAACGAA | 0.314 |
| ATCTAAAC | 0.273 |
| AGTTGATC | 0.0263 |
| ACTGCCAA | 0.0299 |
| AGGAGAAT | -0.016 |
| AGAATATC | -0.145 |
| ACGAACGA | 0.435 |
| AACAGGTT | 0.0276 |
| AGTTCATG | -0.0839 |
| CAATCAGC | -0.123 |

| Sequence | PBM E-score |
| --- | --- |
| ATGACGTC | 0.0247 |
| AATTGATG | 0.107 |
| CCCAGCGC | -0.0828 |
| AATTGCAA | 0.0461 |
| CATGCGCC | -0.171 |
| GAATGCGA | 0.21 |
| CTATCCAG | -0.263 |
| AGTAGCTA | -0.0474 |
| AGCATACA | -0.0736 |
| GGTAGCAC | -0.313 |
| GTTTCGGA | 0.219 |
| AGGCCGTG | -0.207 |
| AAGTAATT | 0.133 |
| ATTATTTC | 0.0489 |
| CCTCCCAG | -0.234 |
| CACAACGC | 0.0768 |
| AGCCTTAT | 0.0162 |
| GGGATCAA | -0.0307 |
| GACGGACA | -0.00605 |
| CGGTGGAG | 0.171 |
| CTCAAGCC | -0.144 |
| GAGAGAGC | 0.13 |

| Sequence | PBM E-score |
| --- | --- |
| CGGCCGAA | -0.127 |
| AGTAGGCG | -0.0173 |
| CTATAGTA | -0.12 |
| CAACTCGA | -0.0457 |
| ACGACTGA | 0.299 |
| CGCCATGA | -0.18 |
| TACTGTAA | 0.194 |
| ATTGTCTC | -0.0724 |
| TGAAACCA | -0.186 |
| ATCCTTGA | -0.168 |
| CGAGATGC | 0.0652 |
| ACCCTCAA | -0.25 |
| GGGACCCA | -0.0504 |
| AATTTCCG | 0.184 |
| ATATCAGG | -0.118 |
| ATTTCAAA | -0.0405 |
| CACGCGCA | -0.0995 |
| AATAGCTG | -0.186 |
| GGTGGGAA | 0.116 |
| CCTCCGCC | -0.254 |
| ACACCAGT | -0.232 |
